From PubChem BioAssay AID624296 (National Center for Advancing Translational Sciences (NCATS), 2012)
Screen size: about 350,000 compounds; about 9,900 (2.8%) were called active. The inconclusive results got no clear call from the source; some entries with a clear call stand among them for comparison. The call rests on the fitted dose curve; in most records, active means well fitted activation curve with a large enough effect; inconclusive means small, poorly fitted or top-dose-only effect; inactive means no such curve, though single readings can be large or run the other way. No potency is given beside an inconclusive call; the fits are too rough.

Assay: A quantitative high throughput screen for small molecules that induce DNA re-replication in MCF 10a normal breast cells. Further: nearly all actives have a fitted effect of over 50% in size. On activity, positive = re-replication: % of control where 0% means no effect.
Details: MCF 10A DNA re-replication, Hoechst nuclear intensity, 48 h; activity, positive = re-replication: at 46.1 µM (top of the series)
Potency means the concentration at half of the fitted maximal effect; tags describe the fitted curve by direction and shape.

Compound | Potency | activity, positive = re-replication
Cc1ccc(C(=O)Nc2ccccc2C(=O)O)cc1S(=O)(=O)Nc1ccc(Br)cc1 | inconclusive [activator, single point] | 
C#CC[N+](C)(C)CCCCCCCCCCCC | active: 25.9 µM | 
COc1ccccc1CCc1nnc(CCC(=O)N(C)Cc2cccc3cnccc23)o1 |  | inactive: 4.18%
CN1CCN(CCCCOc2ccccc2C=O)CC1 | inconclusive [activator, single point] | 
CC1CN(C(=S)Nc2ccccc2)CC(C)O1 (configuration not stated) |  | inactive: -0.429%
CCc1ccc(/C=C2/C(=O)N(c3ccccc3)C(=S)N2CC(=O)OC)s1 | inconclusive [activator, single point] | 
CC(=O)c1sc2nc(-c3cccs3)ccc2c1N | inconclusive [activator, single point] | 
CC1CCc2nc3sc4c(c3c(N)c2C1)CCCC4 (configuration not stated) | inconclusive [activator, single point] | 
CC(=O)c1c(C)[nH]c(C(=O)Nc2ccc(C)c(S(=O)(=O)Nc3ccc(C)cc3C)c2)c1C | active: 11.6 µM | 
CCC(C)(C)NC(=O)CN(C(=O)CCC(=O)Nc1nccs1)c1ccc(C)cc1 | inconclusive [activator, single point] | 
O=C(N/N=C(/CC(=O)c1cccs1)C(F)(F)F)c1ccc(O)cc1 | inconclusive [activator, partial curve, poor fit] | 
Cc1cccc(C)c1NC(=O)c1cccc2c1C(=O)N(C1CCCCC1)C2 | inconclusive [activator, single point] | 
C[C@H](CO)N1C[C@H](C)[C@@H](CN(C)C(=O)NC2CCCCC2)Oc2ccc(NC(=O)CCC(F)(F)F)cc2C1=O |  | inactive: 8.7%
COc1cc(/C(C)=N/NC(=O)CSc2nncn2C)ccc1OCc1ccccc1Cl | inconclusive [activator, partial curve, poor fit] | 
CCNC(=O)N(CC)C[C@H]1N[C@@](Cc2ccccc2)(C(=O)OC)[C@H]2C(=O)N(Cc3ccccc3)C(=O)[C@@H]12 | inconclusive [activator, single point] | 
COC(=O)c1ccc(/C=C2\SC(=S)N(CCCC(=O)N3CCOCC3)C2=O)cc1 |  | inactive: -22.7%
C/C(=N\NC(=O)c1nnn(-c2nonc2N)c1CN1CCc2ccccc21)c1ccccc1O | inconclusive [activator, partial curve, poor fit] | 
CCOC(=O)c1ccc(NC(=O)CN2C(=O)C(C)SC(C)C2=O)cc1 (configuration not stated) |  | inactive: 0.186%
O=[N+]([O-])c1ccc(Cl)c(NC2=NCCCCC2)c1 |  | inactive: -0.0135%
COc1ccc(C(=O)C2CCCN(Cc3sc(N4CCCC4)nc3Cl)C2)c(OC)c1 (configuration not stated) | inconclusive [activator, single point] | 
COCc1cc(C)nc(SCc2ccc(Br)cc2)c1C#N |  | inactive: -2.58%
O=C(NCCN1CCOCC1)c1ccc(Cl)c(S(=O)(=O)N2CCCC2)c1 | inconclusive [activator, single point] | 
Cn1c(C(C(=O)NCC2CCCO2)N(CCc2ccccc2)C(=O)Cn2nnc3ccccc32)nc2ccccc21 (configuration not stated) |  | inactive: -0.0447%

Compound | Potency | activity, positive = re-replication
CCCCCC(=O)Nc1ccc(-c2csc(N)n2)cc1 | inconclusive [activator, partial curve, poor fit] | 
COc1cccc(C(=O)NNC(=O)c2sccc2-n2cccc2)c1 | inconclusive [activator, partial curve, poor fit] | 
COc1ccc(CCCN2CCC(CN3C(=S)NC[C@@H]3Cc3ccccc3)CC2)cc1OC | inconclusive [activator, full curve, poor fit] | 
Cc1ccnc(NC(=O)C2CCN(S(=O)(=O)c3cccc4nsnc34)CC2)c1 | inconclusive [activator, single point] | 
CCOC(=O)Cc1c(C)[nH]n(-c2ccccc2)c1=O | inconclusive [activator, single point] | 
CCOC(=O)[C@H]1[C@H]2COc3ccc(Cl)cc3[C@@H]2N2C(=O)c3cc(F)c(F)cc3NC(=O)[C@@]12C |  | inactive: -4.92%
O=C(CCN1C(=O)/C(=C/c2cccs2)SC1=S)Nc1cccc(O)c1 | inconclusive [activator, single point] | 
CCCn1nc(Oc2nc(NCC)nc(NC(C)C)n2)ccc1=O | inconclusive [activator, single point] | 
Cc1cc(C)c2nc(NNC(=O)c3cc(=O)c4ccccc4o3)sc2c1 | inconclusive [activator, single point] | 
CCOc1ccc(NC(=O)c2c(NC(=O)CN3CCCC3)sc3c2CCC3)cc1 |  | inactive: 14.2%
COc1ccc(N(C(=O)c2snc(C(N)=O)c2N)C(C(=O)NC2CCCC2)c2cc(OC)ccc2OC)cc1 (configuration not stated) | inconclusive [activator, single point] | 
COc1ccc(C(=O)NC2CCN(C(=S)Nc3ccc(C)cc3)CC2)cc1 | inconclusive [activator, partial curve, poor fit] | 
COc1ccc(C(=O)Nc2cc(C)nn2-c2nc3ccccc3[nH]2)c(OC)c1 | inconclusive [activator, single point] | 
O=C(Nc1ccc(Cl)cn1)C1COc2ccccc2O1 (configuration not stated) |  | inactive: 0.919%
CCCCNC(=O)c1nn2c(C(F)(F)F)cc(-c3ccc(OC)cc3)nc2c1Br | inconclusive [activator, partial curve, poor fit] | 
C/C(=N\NC(=O)COc1cccc2ccccc12)c1cccs1 | inconclusive [activator, single point] | 
COc1ccccc1CN(C)CC(=O)Nc1ccccc1-c1ccccc1 | inconclusive [activator, single point] | 
Cc1ccc(CN2CCSc3ccc(C(=O)NCc4cccnc4)cc32)cc1 |  | inactive: -13.6%
CCc1ccccc1NC(=O)CN(c1cccc(OC)c1)S(C)(=O)=O | inconclusive [activator, full curve, poor fit] | 
O=C(COc1ccccc1)NCC(=O)N/N=C/c1ccc(Cl)cc1 |  | inactive: 4.53%
COc1ccc(Cl)cc1NC(=O)CN1CCN(Cc2ccccc2)CC1 | inconclusive [activator, single point] | 
COc1ccc(N(C(=O)C(C)C)S(=O)(=O)c2cccs2)cc1 | inconclusive [activator, single point] | 
COc1ccc(C2=NOC(C(=O)NCc3ccc(F)cc3)C2)cc1 (configuration not stated) | inconclusive [activator, full curve, poor fit] | 

Compound | Potency | activity, positive = re-replication
CC1CCN(C(=O)c2[nH]cnc2C(=O)NC2CCN(C(=O)OC(C)(C)C)CC2)CC1 |  | inactive: 40.9%
CCN=c1sc2ccccc2n1CC(O)COc1ccccc1 (configuration not stated) | inconclusive [activator, full curve, poor fit] | 
Cc1ccc(-c2nc(N/N=C/c3ccccc3[N+](=O)[O-])c3ccccc3n2)cc1 | active: 13 µM | 
Oc1ccccc1CNc1ccc(OC(F)(F)F)cc1 |  | inactive: -3.34%
COc1ccc(/C=C2\C(=O)NC(=S)N2C(=O)c2ccc(F)cc2)cc1 | inconclusive [activator, single point] | 
CCCC1CCC(c2nc(-c3cccnc3)no2)CC1 (configuration not stated) | inconclusive [activator, single point] | 
CN1CCN(/N=C/c2ccc(N(C)c3ccccc3)cc2)CC1 | inconclusive [activator, partial curve, poor fit] | 
O=C(CSc1nnc(-c2cccnc2)n1Cc1ccco1)c1ccc2ccccc2c1 |  | inactive: 3.76%
CC(CC(=O)Nc1ccc(Cl)c([N+](=O)[O-])c1)c1ccccc1 (configuration not stated) | inconclusive [activator, partial curve, poor fit] | 
O=C(NC(=S)Nc1ccccc1N1CCCCC1)c1cccs1 | inconclusive [activator, single point] | 
CN(C)CCCNS(=O)(=O)c1ccc(-n2nnc3ccccc32)c([N+](=O)[O-])c1 | inconclusive [activator, partial curve, poor fit] | 
O=C(Nc1cccc(Cl)c1)c1cccc(Oc2ccc([N+](=O)[O-])cc2Cl)c1 | inconclusive [activator, single point] | 
O=C(NNC(=O)C1CCN(Cc2ccccc2)CC1)c1cccs1 |  | inactive: -1.65%
CCCc1nc2ccccc2n1CCOc1ccccc1 | inconclusive [activator, partial curve, poor fit] | 
CCCN1CCN(CCCNC(=O)Cn2nc(-c3ccc(C)cc3)ccc2=O)CC1 | inconclusive [activator, full curve] | 
O=C(CC1c2ccccc2Oc2ccccc21)N1CCN(c2ccccn2)CC1 | inconclusive [activator, partial curve, poor fit] | 
CCCCOC(=O)c1ccc(NC(=O)c2ccoc2C)cc1 | inconclusive [activator, partial curve, poor fit] | 
Oc1ccc(/C=N/Nc2ccc(C(F)(F)F)cn2)cc1 |  | inactive: -0.709%
CCNC(C(=O)c1c[nH]c2c(CC)cccc12)c1ccccc1 (configuration not stated) | inconclusive [activator, single point] | 
N=c1c2c(-c3ccccc3)c(-c3ccccc3)n(Cc3ccco3)c2ncn1CCCn1ccnc1 | inconclusive [activator, full curve, poor fit] | 
Cc1cccc(-c2noc(-c3ccc(Cl)cc3[N+](=O)[O-])n2)c1 | inconclusive [activator, partial curve, poor fit] | 
